# Where “and” joins values, the source holds several entries; their conditions need not be identical. Identical values can stand only once. About 1,800 (2.5%) of roughly 71,000 compounds were called active. Inconclusive results, whose numbers are uncertain, are shown with a selection of clear calls. Calls follow the shape of the dose curve; as a rule, active = well fitted activation curve with a large enough effect in the signal ratio, with a control signal flat (not every such curve was filed as active); inconclusive = small, poorly fitted or top-dose-only effect, or effect the other way, or a change in a side signal; inactive = flat fitted curve, though single readings scatter; the % refers to the signal ratio. Where the call is inconclusive, the potency comes from a doubtful curve fit.
# Experiment: Cell signaling CRE-BLA (Fsk stim); as to activity change, negative = inhibition: % of control where 0% means no effect
# Details: CHO CRE-bla reporter (cAMP response element driving beta-lactamase), forskolin EC10, beta-lactamase ratio; activity change, negative = inhibition: at 38.2 µM (top of the series) unless noted
# Outline: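 Modulation of forskolin-driven signalling is measured in CHO cells carrying a CRE-controlled beta-lactamase reporter. Cells are stimulated with EC10 NKH 477 in the presence of titrated compound for 3 h at 37 °C, then loaded with CCF4 for 2 h at room temperature.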
# Potency is read from the fitted curve at half-maximal effect; tags tell the direction and shape of the fitted curve.
SMILES,"activity change, negative = inhibition",Potency
Cc1cc2nc([C@H](C)C(=O)c3ccc(Cl)cc3)c(=O)[nH]c2cc1C,inactive: 4.72% [at 7.6 µM],–
COc1ccc2cc(CCNC(=O)c3c(-c4ccccc4Cl)noc3C)c(=O)[nH]c2c1,–,"inconclusive: 10 µM [rising, single point]"
COc1ccc2nc3oc(C(=O)N4CCCCC4)cc3cc2c1,inconclusive: 4.83%,–
O=C(Cc1ccc(F)cc1)OCC(=O)c1cc2ccccc2o1,inconclusive: -11.7%,–
CC1=CC(c2ccccc2)n2nc(N3C(=O)c4ccccc4C3=O)nc2N1 (stereo unspecified),–,"inconclusive: 25.1 µM [rising, single point]"
CC(=O)c1c(N2CCN(C(=O)C3CCCO3)CC2)nc(=S)n(-c2ccccc2)c1C (stereo unspecified),inactive,–
CCOC(=O)CSc1nc2c(cnn2-c2ccc(C)cc2)c(=O)[nH]1,inconclusive: -0.513%,–
NNC(=O)[C@@H](O)[C@H](O)C(=O)NN,inactive: 14% [at 7.6 µM],–
CCc1nc2oc3ccccc3c(=O)c2c(=O)n1Cc1ccc(OC)cc1,–,"inconclusive: 6.31 µM [rising, partial curve]"
Cn1nnnc1SCc1cc(=O)n2ccsc2n1,inactive,–
Nc1ccc(-c2ccc(N)c(O)c2)cc1O,inconclusive: -13.2%,–
O=C(Nc1cccc(F)c1)N1CC2(CCN(C(=O)c3cc(C(F)(F)F)cc(C(F)(F)F)c3)CC2)C1,inactive,–
CCCCn1c(C(C)O)nc2ccccc21 (stereo unspecified),inactive,–
CCCCCCn1c(N2CCC(C)CC2)nc2c1c(=O)[nH]c(=O)n2C,–,"inconclusive: 10 µM [rising, partial curve]"
Cc1cc2cc3c(=O)[nH]c(=O)[nH]c3nc2cc1C,inactive: 5.84% [at 7.6 µM],–
CCn1c(=O)c(C2=NS(=O)(=O)c3ccccc3N2)c(O)c2ccccc21,inactive,–
O=C(CCCCn1c(=O)[nH]c2ccccc2c1=O)N1CCN(c2ncccn2)CC1,inconclusive: 23.3%,–
Cc1ccc(N2C(N)=C(C#N)C(c3cccnc3)C3=C2CCCC3=O)cc1 (stereo unspecified),inactive,–
O=C(c1ccc(Br)o1)N1CCN(c2ccc(F)cc2)CC1,inconclusive: -2.09%,–
COc1cc(C)c(C)cc1S(=O)(=O)N1CCN(Cc2ccc3c(c2)OCO3)CC1,inactive,–
CCn1c(=O)c2c(cnn2C)c2ccccc21,–,"inconclusive: 10 µM [rising, partial curve]"

SMILES,"activity change, negative = inhibition",Potency
COc1ccc(NC(=O)Cn2nnc(-c3ccccc3NC(=O)c3cccs3)n2)cc1,–,"inconclusive: 25.1 µM [rising, single point]"
O=C(c1ccco1)N1CCC2(CC1)CN(c1ccccc1)C2,inactive,–
CCOCCCNS(=O)(=O)c1ccc2c(c1)CCN2C(C)=O,inactive,–
COC(=O)N1CCC2(CCCN(C(=O)Nc3cccc(F)c3)C2)CC1,inactive,–
COc1cccc(-c2cc(C(F)(F)F)n3nc(N)nc3n2)c1,inconclusive: 15.9%,–
COc1c2ccoc2cc2oc(=O)ccc12,–,"inconclusive: 31.6 µM [rising, single point] and inconclusive: 25.1 µM [rising, single point]"
COc1ccc(-c2cc(C(=O)NCc3cccs3)no2)cc1OC,–,"inconclusive: 12.6 µM [rising, single point]"
COCCSc1nnc(NC(=O)C2CCCO2)s1 (stereo unspecified),inconclusive: 28.5%,–
N#CCCn1c(=O)c(-c2ccccc2)nc2cnc(Oc3cccc(Cl)c3)nc21,–,"inconclusive: 25.1 µM [rising, single point]"
Clc1ccc(CC[C@H](Cn2ccnc2)Sc2c(Cl)cccc2Cl)cc1,–,"inconclusive: 10 µM [rising, partial curve]"
O=S(=O)(c1ccc(F)cc1)N1CN(Cc2ccco2)c2nc3ccccc3nc21,inconclusive: 19.8%,–
O=C(CN1C(=O)c2cccc3cccc1c23)N1CCN(c2cccc(Cl)c2)CC1,inconclusive: 16.6%,–
CCSc1nc2nc(C)cc(C)n2n1,inconclusive: 5.49%,–
CN1c2ccccc2C(C)(C)C12CCCC(=O)N2 (stereo unspecified),inactive,–
CCOc1ccc(-n2c(SCC(=O)Nc3ccc(OC)cc3OC)nc3c(c2=O)SCC3)cc1,–,"inconclusive: 6.31 µM [rising, partial curve]"
CCCn1nnc(NC(=O)c2cccc(OCC(C)C)c2)n1,–,"inconclusive: 3.98 µM [falling, single point]"
CC1CCN(c2nc(-c3ccncc3)nc3ccccc23)CC1,–,active: 7.94 µM
CCCCn1c(=S)[nH]c2c(oc3ccc(Cl)cc32)c1=O,inconclusive: 28.3%,–
O=C(c1c[nH]c2ccc(S(=O)(=O)N3CCOCC3)cc2c1=O)N1CCCC1,inactive,–
O=S(=O)(NCc1ccc2c(c1)OCO2)c1ccc2c(c1)oc1ccccc12,–,"inconclusive: 3.98 µM [rising, partial curve]"
CSCSC1=C(C#N)C(c2ccccc2Cl)C(C(C)=O)=C(C)N1 (stereo unspecified),inactive,–

SMILES,"activity change, negative = inhibition",Potency
CC1(C)CC(=O)C(C=NCCN2CCN(C(=O)NC34CC5CC(CC(C5)C3)C4)CC2)=C(O)C1,inactive,–
COc1ccc(CCC(=O)Nc2ccc(Br)cn2)cc1,–,"inconclusive: 12.6 µM [falling, single point]"
Cc1cccc(CNc2ncnc3ccc(-c4cccc(C#N)c4)cc23)c1,–,"inconclusive: 3.98 µM [rising, full curve, poor fit]"
COc1ccc(-n2c(=O)c(-c3cccs3)nc3cnc(OC)nc32)cc1,–,"inconclusive: 10 µM [rising, partial curve]"
Cc1sc2nc(C3CC3)nc(SCC(=O)NCc3ccco3)c2c1C,–,"inconclusive: 12.6 µM [rising, partial curve]"
COCCCNc1ccnc2c(Cl)cccc12,inconclusive: -9.49%,–
CSc1nc(NC(C)C)nc(N2CCOCC2)n1,–,"inconclusive: 12.6 µM [rising, partial curve]"
COc1ccc(C(CNC(=O)C2CC(=O)N(Cc3ccc(C)cc3)C2)N(C)C)cc1 (stereo unspecified),–,"inconclusive: 5.01 µM [falling, single point]"
Cc1ccc2cc(CCNC(=O)c3ccc(Br)o3)c(=O)[nH]c2c1,inconclusive: 12.6%,–
CC(=O)NCCNc1nc(-c2ccccc2Cl)nc2ccccc12,inconclusive: 26.4%,–
COc1ccc(CCN2CCCn3c2nc2c3c(=O)n(Cc3ccccc3F)c(=O)n2C)cc1OC,–,"inconclusive: 3.16 µM [rising, partial curve]"
COCCn1c(=O)c(-c2ccccc2)nc2cncnc21,–,"inconclusive: 25.1 µM [rising, single point]"
COCCn1c(C)cc(C(=O)CSc2nc(C)nc3sc4c(c23)CCC4)c1C,inconclusive: 14.6%,–
Cc1cc(N2CCN(C(=O)c3ccco3)CC2)nc(-c2ccccc2)n1,inactive,–
CC(C)[N+]1(C)[C@@H]2CC[C@H]1CC(OC(=O)[C@@H](CO)c1ccccc1)C2 (stereo partly specified),inactive,–
COc1ccc(C(=O)c2ccc(OC)c(N)c2)cc1N,–,"inconclusive: 15.8 µM [rising, single point]"
Cn1c(C(=O)NCC2CCCO2)cc2c(=O)n3ccccc3nc21 (stereo unspecified),–,active: 2.51 µM
CCCn1nnnc1SCC(=O)c1ccc2c(c1)OCCO2,inconclusive: -3.27%,–
O=C(N1CCN(CCO)CC1)N1c2ccccc2C=Cc2ccccc21,inconclusive: -4.28%,–
COc1ccc(Cn2nnnc2C(c2cc3cccc(C)c3[nH]c2=O)N2CCOCC2)cc1 (stereo unspecified),inactive,–
COc1ccc(CCNC(=O)CC2Nc3ccccc3NC2=O)cc1OC (stereo unspecified),inactive,–

SMILES,"activity change, negative = inhibition",Potency
O=C(Nc1ccccc1C(=O)N1CCN(c2ccccc2)CC1)c1ccco1,–,"inconclusive: 0.0398 µM [rising, full curve, poor fit]"
Cc1cc(-n2nc(C)cc2C)nc(N)n1,–,"inconclusive: 12.6 µM [rising, single point]"
O=C(CCCN1C(=O)c2ccccc2C1=O)N1CCN(c2ccccn2)CC1,inactive,–
CCCCC(NC(=O)c1ccc(Cl)cc1)C(=O)O (stereo unspecified),inactive,–
[O-][N+]1=c2ccc(Nc3ccccc3)cc2=NC12CCCCC2,inconclusive: -15.6%,–
Nc1nc(N)c2nc(CNc3ccc(C(=O)N[C@H](CCC(=O)O)C(=O)O)cc3)cnc2n1,inconclusive: 24.1%,–
CC1(C)CC(=O)c2cc(C(=O)NC3CCSC3=O)c(=O)n(-c3ccccc3)c2C1 (stereo unspecified),–,"inconclusive: 10 µM [rising, single point]"
CS(=O)(=O)c1ccc2nc(NC(=O)CC3CCCC3)sc2c1,inconclusive: 12.6%,–
c1ccc2cc(-c3cc(-c4cc(-c5ccc6ccccc6c5)on4)no3)ccc2c1,inactive: -7.02% [at 7.6 µM],–
CNC(=O)c1nnn(Cc2ccccc2)c1NC(=O)C(F)(F)F,inconclusive: -11.4%,–
COC(=O)c1cc(-c2ccc(OC)c(OC)c2)n[nH]1,–,"inconclusive: 7.94 µM [rising, partial curve]"
CCOC(=O)N1CCN(C(=O)c2ccc3c(=O)n(CCC4=CCCCC4)c(=S)[nH]c3c2)CC1,–,"inconclusive: 25.1 µM [rising, single point]"
CN(C)c1ccc(CNC(=O)C2(C)C=CCN2C(=O)c2ccccc2)cc1 (stereo unspecified),inactive,–
N=C(N)SCCCN,inactive: -7.14% [at 7.6 µM],–
O=S(=O)(NCc1ccccc1)c1cccc2nonc12,inconclusive: 2.86%,–
C/C=C/Cn1c(N2CCCCCC2)nc2c1c(=O)[nH]c(=O)n2C,inconclusive: 17.7%,–
O=C(CCNS(=O)(=O)c1cccc2nsnc12)NC1CCCc2ccccc21 (stereo unspecified),–,"inconclusive: 25.1 µM [rising, single point]"
Cc1noc(C)c1COC(=O)c1ccc2c(c1)OCO2,–,"inconclusive: 5.01 µM [falling, single point]"

# — PubChem BioAssay AID662 (National Center for Advancing Translational Sciences (NCATS), 2007)
